# Data as given in PubChem BioAssay AID1030 (National Center for Advancing Translational Sciences (NCATS), 2008).
# Among all 220,000 compounds or so, about 16,000 (7.3%) were called active. Inconclusive means that the source gave no clear call. Such entries were picked first, then a sample of the others. The call rests on the fitted dose curve; in most records, active means well fitted inhibition curve with a large enough effect (not every such curve was filed as active); inconclusive means small, poorly fitted or top-dose-only effect, or another doubt; inactive means no such curve, though single readings can be large or run the other way. Potencies of inconclusive entries are left out as doubtful fits.
# Molecular target: Aldehyde dehydrogenase 1A1 (Homo sapiens) (UniProt P00352)
# Sequence of UniProt P00352 (P00352 whole entry, looked up): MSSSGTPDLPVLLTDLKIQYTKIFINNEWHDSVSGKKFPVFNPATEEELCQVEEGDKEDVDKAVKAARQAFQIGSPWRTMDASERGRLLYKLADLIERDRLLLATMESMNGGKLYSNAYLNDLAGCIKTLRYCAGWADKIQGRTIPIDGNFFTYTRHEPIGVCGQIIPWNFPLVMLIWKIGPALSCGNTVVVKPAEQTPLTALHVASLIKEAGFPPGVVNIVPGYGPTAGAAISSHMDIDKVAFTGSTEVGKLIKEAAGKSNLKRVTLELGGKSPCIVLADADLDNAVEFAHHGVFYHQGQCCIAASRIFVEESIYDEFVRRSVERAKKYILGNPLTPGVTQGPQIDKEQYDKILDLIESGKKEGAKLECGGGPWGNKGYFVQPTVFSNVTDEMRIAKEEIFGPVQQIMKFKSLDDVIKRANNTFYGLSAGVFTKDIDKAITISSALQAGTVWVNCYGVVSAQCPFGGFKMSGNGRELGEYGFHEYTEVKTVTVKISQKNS
# Assay: qHTS Assay for Inhibitors of Aldehyde Dehydrogenase 1 (ALDH1A1);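 on activity, negative = inhibition: plate controls were no enzyme wells and a reference inhibitor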
# Conditions: Purified ALDH1A1, NADH fluorescence, propionaldehyde substrate; series mostly up to 75.3 µM; activity, negative = inhibition: at the top concentration
# Potency means the concentration at half of the fitted maximal effect; tags describe the fitted curve by direction and shape.
Compound,Potency,"activity, negative = inhibition"
CC(=O)c1cccc(S(=O)(=O)N2CCN(c3nc4cc(C)cc(C)c4cc3C#N)CC2)c1,"inconclusive [inhibitor, partial curve]",
Nc1ccc(O)cc1C(=O)OCC(=O)C12CC3CC(CC(C3)C1)C2,"inconclusive [inhibitor, partial curve]",
COc1ccc(-c2c3c(cc(C)[n+]2[O-])oc2ccc(OC)cc23)cc1,"inconclusive [inhibitor, single point]",
CCCSc1nsc(NC(=O)C(c2ccccc2)c2ccccc2)n1,,inactive: -15.7%
O=[N+]([O-])c1ccc(Cl)c(/C=N/N2CCN(C3c4ccccc4-c4ccccc43)CC2)c1,,inactive: 9.67%
CCN1CCN(CCNC(=O)CSCc2nc(-c3ccc(OC)c(OC)c3)oc2C)CC1,"inconclusive [inhibitor, partial curve]",
COc1cccc(/C=N/Nc2nc(N3CCCC3)nc(N3CCCC3)n2)c1O,"inconclusive [inhibitor, partial curve, poor fit]",
CCCCCCCCCCCCCCC/C=C/[C@@H](O)[C@H](NC(=O)CCCCCCCCCCCCC)OC (tested in a mixture with another compound),"inconclusive [inhibitor, single point]",
COc1ccc(N=C2C(=O)Nc3c(C)cccc32)cc1,active: 14.1 µM,
COc1ccc(-c2csc(NC(=O)CSc3nc(C)nc4sc(C(=O)O)c(C)c34)n2)cc1,"inconclusive [inhibitor, single point]",
O=C(CCN1CCCCC1)c1csc2ccccc12,active: 0.141 µM,
O=c1[nH]c(NCCCO)nc2c1C1(CCCC1)Cc1ccccc1-2,"inconclusive [inhibitor, partial curve]",
COc1cccc(C2=Nn3c(nnc3-c3ccccc3O)SC2)c1,"inconclusive [inhibitor, single point]",
O=[N+]([O-])c1ccc(N2CCOCC2)cc1N1CCCCC1,active: 5.62 µM,
O=c1c2ccccc2c(-c2ccccc2)nn1-c1ccccn1,,inactive: 8.22%
Cc1csc(NC(=O)c2ccc(S(C)(=O)=O)cc2)n1,"inconclusive [inhibitor, single point]",
CN1C(=O)c2ccc(C(=O)Nc3nccs3)cc2C1=O,"inconclusive [inhibitor, single point]",
COc1cc(/C=N/Nc2snc(SC)c2C#N)ccc1O,,inactive: 0.878%
O=C(Nc1ccc2c(c1)N(Cc1ccccc1)C(=O)c1ccccc1S2)NC1CC1,"inconclusive [inhibitor, single point]",
CCOC(=O)c1sc(NC(=O)c2ccc(S(=O)(=O)N(C)C)cc2)nc1C,"inconclusive [inhibitor, single point]",
CCOC(=O)c1sc(N)nc1C(C)(C)C,"inconclusive [inhibitor, single point]",
O=C(Cc1ccccc1)Nc1ccc2oc(=O)ccc2c1,"inconclusive [inhibitor, partial curve]",
COc1ccc(SCC(=O)Nc2ccccc2Cl)cc1,,inactive: -10.6%
O=C1CC(=O)N(CCc2ccc(F)cc2)C(=O)N1,"inconclusive [inhibitor, full curve]",

Compound,Potency,"activity, negative = inhibition"
COC(=O)c1cnc(N2CCCN(S(=O)(=O)c3ccccc3)CC2)nc1C(F)(F)F,"inconclusive [inhibitor, single point]",
Cc1cc(C)nc(SCC(=O)Nc2cccc(S(=O)(=O)N(C)C)c2)n1,"inconclusive [inhibitor, single point]",
COc1cc2ncnc(NCc3ccccc3C)c2cc1OC,"inconclusive [inhibitor, single point]",
CCOCCCNCC(=O)NCC1CCCCC1,,inactive: -9.78%
Cc1[nH][nH]c(=O)c1C(c1ccc(-c2ccc(C(=O)O)cc2)o1)c1c(C)[nH][nH]c1=O,"inconclusive [inhibitor, partial curve]",
CC(C)CNC(=O)c1ccc(Cl)c(Cl)c1,,inactive: 10.9%
O=C(COC(=O)c1n[nH]c2ccccc12)NC(=O)NC1CCCCC1,,inactive: -8.28%
CCOC(=O)Cn1c(=NC(=O)C2COc3ccccc3O2)sc2cc(S(N)(=O)=O)ccc21 (configuration not stated),"inconclusive [inhibitor, single point]",
COc1cc(/C=C2/CCC/C(=C\c3cc(O)c(OC)c(Cl)c3)C2=O)cc(Cl)c1O,active: 14.1 µM,
O=C(CN1CCCc2ccccc21)NCc1ccccc1Cl,"inconclusive [inhibitor, single point]",
CC(=O)Nc1nc(CC(C)C)cc2c1c(=O)oc1ccccc12,"inconclusive [inhibitor, single point]",
Cc1ccc2nc(-c3ccc(NS(=O)(=O)c4ccccc4)cc3)sc2c1,"inconclusive [inhibitor, single point]",
COc1ccc(C(=O)NCc2nnc(SCC(=O)N3CCc4ccccc43)o2)cc1OC,,inactive: -1.05%
COc1cccc2c1C(=O)c1c(O)c3c(c(O)c1C2=O)C[C@](O)(C(=O)CO)C[C@H]3O[C@@H]1C[C@H](N)[C@H](O)[C@H](C)O1,,inactive: -2.63% [at 20.9 µM]
COc1cccc(C2C(C#N)=C(N)Oc3cc(C)oc(=O)c32)c1OC (configuration not stated),"inconclusive [inhibitor, single point]",
COc1ccc(S(=O)(=O)Nc2ccc(S(=O)(=O)Nc3ccc(F)cc3)cc2)cc1C,"inconclusive [inhibitor, single point]",
COc1ccc(CN(C)CC(=O)Nc2cc(OC)c([N+](=O)[O-])cc2C)c(OC)c1,,inactive: 3.87%
CC(=O)c1sc(Nc2ccccn2)nc1C,active: 20 µM,
C=CCn1c(SCC(=O)Nc2ccc3c(c2)OCO3)nnc1-c1ccccc1,"inconclusive [inhibitor, single point]",
CCN(CC)c1ccc(C2NC(=O)NC(C)=C2C(=O)Nc2ccccc2)cc1 (configuration not stated),"inconclusive [inhibitor, single point]",
CCOCCCNC(=S)NCCCNc1nc2c(C)c(C)ccc2cc1C#N,"inconclusive [inhibitor, partial curve]",
O=c1cc(-c2ccccc2)oc2cccc(O)c12,,inactive: -5.29%
O=C(Nc1ccc(NC(=O)c2sc3ccccc3c2Cl)cc1Cl)c1ccco1,"inconclusive [inhibitor, single point]",
CCC(=O)c1ccc(OCCn2cncn2)cc1,,inactive: 5.09%

Compound,Potency,"activity, negative = inhibition"
CC(=O)NC1CC2CCCC(C1)N2S(=O)(=O)c1cccc(F)c1 (configuration not stated),"inconclusive [inhibitor, single point]",
c1ccc(-n2nnnc2OCCOc2nnnn2-c2ccccc2)cc1,active: 2.51 µM,
CN1Cc2c(N)cccc2[C@H](c2ccccc2)C1,,inactive: 7.64% [at 20.9 µM]
COc1ccc(/C=N/NC(=O)c2ccncc2)cc1CSc1nc2ccccc2s1,"inconclusive [inhibitor, partial curve]",
CCOC(=O)c1sc2nc(N3CCOCC3)c3c(c2c1N)CC(C(C)C)OC3 (configuration not stated),"inconclusive [inhibitor, full curve, poor fit]",
CCCN(CCC)C(=O)c1cc2c(=O)[nH]c3ccc(C)cc3c2s1,"inconclusive [inhibitor, single point]",
CCCOc1ccc(N2CC(C(=O)Nc3ccc4c(c3)OCO4)CC2=O)cc1 (configuration not stated),,inactive: 2.64%
COc1cccc(OC)c1C(=O)Nc1ccc2c(c1)Cc1ccccc1-2,,inactive: 5.42%
CN(C)c1ccc(C=NCC2COc3ccccc3O2)cc1 (configuration not stated),active: 0.562 µM,
COc1ccc(C)cc1NC1=C(Cl)C(=O)N(C2CCCCC2)C1=O,"inconclusive [inhibitor, partial curve]",
CC(C)C(=O)Nc1cccc(C(=O)Nc2ccc3c(c2)OCO3)c1,"inconclusive [inhibitor, single point]",
O=C(CSc1cccc[n+]1[O-])Nc1cc2c(cc1Cl)C(=O)c1ccccc1C2=O,active: 8.91 µM,
CCCCCCCCNc1ncnc2ccccc12,,inactive: -2.93%
C[n+]1cccc2c(Br)ccc([O-])c21,"inconclusive [inhibitor, partial curve]",
O=C(C[n+]1ccccc1)Nc1ccccc1Br,active: 1.78 µM,
O=C(CN1C(=O)S/C(=C\c2ccc(O)cc2)C1=O)c1ccccc1,"inconclusive [inhibitor, partial curve, poor fit]",
O=C(CNC(=O)c1ccco1)OCc1ccc(C(=O)Oc2ccccc2)cc1,"inconclusive [inhibitor, single point]",
C/C(=N\NC(=O)c1ccccc1C)c1ccc(N2CCOCC2)cc1,,inactive: 5.33%
COc1ccccc1C1CC(=O)Oc2cc(O)ccc21 (configuration not stated),"inconclusive [inhibitor, single point]",
O=C(CN1CC(=O)Oc2ccccc21)OCC(=O)c1cccc(Br)c1,"inconclusive [inhibitor, single point]",
O=C(CCc1nc(-c2ccccc2)no1)NC1CCCCC1,"inconclusive [inhibitor, single point]",
O=C(CCC1CCCN(C(=O)COc2ccccc2)C1)N1CCN(c2ccccn2)CC1 (configuration not stated),"inconclusive [inhibitor, single point]",
COc1ccc(S(=O)(=O)N(C)c2ccc(C(=O)N3CCCC3)cc2)cc1,,inactive: -13.7%
CCC1(C)Cc2c(sc3nc(SCC(=O)O)[nH]c(=O)c23)CO1 (configuration not stated),"inconclusive [inhibitor, single point]",
